These results are taken from publication PMC5370187.

Amino acid sequences for entries named in this document (tags omitted).
UniProt B0B9A0: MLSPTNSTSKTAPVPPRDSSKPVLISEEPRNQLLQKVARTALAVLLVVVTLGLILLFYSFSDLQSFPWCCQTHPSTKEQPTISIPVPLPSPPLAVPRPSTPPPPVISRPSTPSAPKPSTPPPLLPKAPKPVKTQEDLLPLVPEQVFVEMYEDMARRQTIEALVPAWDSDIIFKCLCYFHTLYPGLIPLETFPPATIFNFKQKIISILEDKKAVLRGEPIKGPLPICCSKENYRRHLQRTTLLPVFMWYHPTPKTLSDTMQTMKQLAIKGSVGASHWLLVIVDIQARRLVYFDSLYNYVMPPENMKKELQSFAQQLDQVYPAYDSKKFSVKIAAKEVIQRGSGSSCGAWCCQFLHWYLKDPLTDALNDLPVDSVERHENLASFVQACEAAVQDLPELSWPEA
UniProt B0B999: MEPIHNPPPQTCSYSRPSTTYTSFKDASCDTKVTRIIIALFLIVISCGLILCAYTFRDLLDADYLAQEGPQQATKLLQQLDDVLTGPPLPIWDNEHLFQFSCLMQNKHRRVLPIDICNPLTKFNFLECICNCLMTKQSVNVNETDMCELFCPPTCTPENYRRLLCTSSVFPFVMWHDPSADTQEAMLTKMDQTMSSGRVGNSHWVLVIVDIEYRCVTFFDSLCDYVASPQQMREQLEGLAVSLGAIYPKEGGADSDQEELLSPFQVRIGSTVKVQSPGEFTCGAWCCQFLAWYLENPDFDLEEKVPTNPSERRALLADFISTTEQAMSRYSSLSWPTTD
UniProt Q07820: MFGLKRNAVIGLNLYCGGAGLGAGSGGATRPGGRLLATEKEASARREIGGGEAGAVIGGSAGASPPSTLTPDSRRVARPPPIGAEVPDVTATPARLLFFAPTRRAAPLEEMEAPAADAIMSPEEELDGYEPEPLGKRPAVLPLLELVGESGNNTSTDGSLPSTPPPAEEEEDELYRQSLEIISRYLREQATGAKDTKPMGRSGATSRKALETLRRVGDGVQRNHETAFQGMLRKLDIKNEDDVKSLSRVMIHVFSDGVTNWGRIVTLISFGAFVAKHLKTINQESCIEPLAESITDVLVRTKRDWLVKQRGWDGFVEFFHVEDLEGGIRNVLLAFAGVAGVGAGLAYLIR

Holding throughout (test): co-IP
The target of assay [1] is Cdu1-FLAG (chlamydial deubiquitinating enzyme 1, FLAG-tagged, expressed from the cdu1 locus of strain Ctr Cdu1-FLAG) (C. trachomatis) (UniProt B0B9A0).
Assay [2] addresses Cdu1-FLAG overexpressed by strain Ctr pTet/Cdu1-FLAG (C. trachomatis) (UniProt B0B9A0).
For assay [3], the target named is Cdu2-FLAG overexpressed by strain Ctr pTet/Cdu2-FLAG (C. trachomatis) (UniProt B0B999).
Assay [4] addresses Cdu1-FLAG expressed in non-infected HEK-293T cells (C. trachomatis) (UniProt B0B9A0).

These are yes or no findings as the source states them, for the method shown. In cells and extracts the contact can be indirect. Some binding calls cover weakened binding; strength is not graded here.

For the substance “endogenous Mcl-1 of HeLa cells (from UniProt Q07820 1-350)”, the results for the binding result in assay [1], in assay [2] and in assay [3] were “binds”, “binds” and “no binding”, respectively.
With “endogenous Mcl-1 of HEK-293T cells (from UniProt Q07820 1-350)”, the binding result in assay [4] is listed as “binds”.
Turning to “endogenous p53 of HeLa cells (from UniProt P04637 1-393)”, the binding result in assay [1] is listed as “no binding”.
